Test results from the supplement of paper PMC6746778.
The other results are listed elsewhere or left out. Many values rest on one well or one pass, so single values are uncertain.

What was measured:
Assay in all cases: proliferation Z-score within cell line (SRB, relative to all inhibitors screened on that line); triple-negative breast cancer lines and a kinase inhibitor library; SRB is the sulforhodamine B protein stain; higher = less growth inhibition (more resistant)
Conditions in all cases: concentration: 1 µM; 4 days
[1] = system: Bt20
[2] = system: Bt549
[3] = system: HCC1143
[4] = system: HCC1806
[5] = system: HCC1937
[6] = system: HCC38
[7] = system: HCC70
[8] = system: Hs578T
[9] = system: MDA-MB-231
[10] = system: MDA-MB-435s
[11] = system: MDA-MB-436
[12] = system: MDA-MB-453
[13] = system: MDA-MB-468
[14] = system: SKBR7
[15] = system: SUM1315MO2
[16] = system: SUM149PT
[17] = system: SUM159PT
[18] = system: SUM185PE
[19] = system: SUM229PE
[20] = system: SUM52PE
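Further: Single-dose primary screen of a 378-member kinase inhibitor library in 96-well plates, with growth read as absorbance of protein-bound SRB dye after TCA fixation.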

Row | SMILES | proliferation Z-score within cell line [1] | proliferation Z-score within cell line [2] | proliferation Z-score within cell line [3] | proliferation Z-score within cell line [4] | proliferation Z-score within cell line [5] | proliferation Z-score within cell line [6] | proliferation Z-score within cell line [7] | proliferation Z-score within cell line [8] | proliferation Z-score within cell line [9] | proliferation Z-score within cell line [10] | proliferation Z-score within cell line [11] | proliferation Z-score within cell line [12] | proliferation Z-score within cell line [13] | proliferation Z-score within cell line [14] | proliferation Z-score within cell line [15] | proliferation Z-score within cell line [16] | proliferation Z-score within cell line [17] | proliferation Z-score within cell line [18] | proliferation Z-score within cell line [19] | proliferation Z-score within cell line [20]
1 | O=C(O)c1ccc(-c2c[nH]c3ncc(-c4ccccc4)cc23)cc1C1CCCC1 | 0.582 | 0.237 | 0.673 | 0.683 | 0.587 | 0.267 | 0.582 | 0.313 | 0.653 | 0.729 | 0.805 | 0.596 | 0.774 | 0.841 | 0.662 | 0.563 | 0.238 | 0.604 | 0.691 | 0.884
2 | OCCn1cc(-c2cnc3nnn(Cc4ccc5ncccc5c4)c3n2)cn1 | 1.12 | 0.569 | 0.753 | 0.573 | 0.559 | 0.593 | 0.731 | 0.632 | 0.846 | 1.17 | 0.998 | 0.743 | 0.756 | 0.736 | 0.772 | 0.877 | 0.5 | 0.885 | 1.06 | 1.17
3 | Nc1nc(N)c2nc(-c3cccc(O)c3)cnc2n1 | 0.593 | 0.193 | 0.494 | -0.071 | 0.399 | 0.0456 | 0.561 | 0.5 | -0.191 | 0.0221 | 0.504 | -1.4 | 0.407 | 0.37 | -0.144 | 0.709 | 0.389 | 0.309 | 0.482 | 0.716
4 | COc1ccc(-c2cc3c(C)nc(N)nc3n([C@H]3CC[C@H](OCCO)CC3)c2=O)cn1 | -1.65 | -1.74 | -0.942 | -1.31 | -1.68 | -0.741 | -1.7 | -1.91 | -1.27 | -1.43 | -1.33 | -1.55 | -1.27 | -1.54 | -1.48 | -1.3 | -1.13 | -1.68 | -1.53 | -1.27
5 | Oc1ccc2ccccc2c1SSc1c(O)ccc2ccccc12 | 0.85 | 0.403 | 0.0964 | 0.563 | 0.177 | 0.489 | 0.0514 | 0.785 | 0.721 | 0.734 | 0.356 | 0.571 | 1.08 | 0.348 | 0.756 | 0.551 | 0.213 | 0.486 | 0.558 | 0.681
6 | CNC(=O)c1ccccc1Sc1ccc2c(/C=C/c3ccccn3)n[nH]c2c1 [Axitinib] | 0.42 | 0.8 | 0.446 | 0.847 | 0.582 | 0.334 | 0.456 | 0.564 | 0.236 | 0.313 | 1.06 | 0.74 | -0.541 | 0.655 | -1.06 | 0.772 | 0.42 | -1.64 | 0.453 | -2.08
7 | O=C(/C=C/c1ccc(O)c(O)c1)c1ccc(O)cc1O [Butein] | 0.696 | 0.51 | 0.552 | 0.778 | 0.588 | 0.422 | 0.505 | 0.519 | 0.945 | 0.717 | 0.196 | 0.663 | 0.823 | 0.751 | 0.684 | 0.81 | 0.411 | 0.856 | 0.765 | 1.09
8 | CO[C@H]1C[C@@H]2CC[C@@H](C)[C@@](O)(O2)C(=O)C(=O)N2CCCC[C@H]2C(=O)O[C@H]([C@H](C)C[C@@H]2CC[C@H](n3cnnn3)[C@H](OC)C2)CC(=O)[C@H](C)/C=C(\C)[C@@H](O)[C@@H](OC)C(=O)[C@H](C)C[C@H](C)/C=C/C=C/C=C/1C [Zotarolimus(ABT-578)] | -1.37 | -1.42 | -0.847 | 0.502 | -1.82 | -0.442 | -2.22 | -2.37 | -0.846 | -0.985 | -1.5 | -1.78 | -1.03 | -1.66 | -0.628 | -0.568 | -0.85 | -1.27 | -1.19 | -1.27
9 | CCN(CC)CCNC(=O)c1c(C)[nH]c(/C=C2\C(=O)Nc3ccc(F)cc32)c1C [Sunitinib Malate] | 1.14 | 0.969 | 0.787 | -0.103 | 0.643 | 0.198 | 0.804 | 0.487 | 0.338 | 0.224 | 0.685 | 0.658 | 1.1 | 0.325 | 0.155 | 0.534 | 0.596 | -0.463 | 0.681 | 0.189
10 | CC1COCCN1c1cc(C2(S(C)(=O)=O)CC2)nc(-c2cccc3[nH]ccc23)n1 (stereo not given) | -2.09 | -2.2 | -1.24 | -1.9 | -2.27 | -0.878 | -2.58 | -1.66 | -0.763 | -0.715 | -1.99 | -1.32 | -1.33 | -1.35 | -1.28 | -2 | -2.01 | -1.78 | -1.81 | -1.42
11 | O=C(NOCC(O)CO)c1cc(Br)c(F)c(F)c1Nc1ccc(I)cc1F (stereo not given) | 0.098 | 0.413 | -0.651 | -1.34 | 0.288 | -0.126 | 0.314 | -0.448 | -1.78 | -1.61 | -0.0113 | 0.145 | 0.449 | 1.24 | 0.645 | -1.7 | 0.162 | -0.192 | -1.76 | -1.12
12 | COc1cc(N2CCC(N)CC2)ccc1Nc1ncc(Cl)c(-c2c[nH]c3ccccc23)n1 | 0.41 | 0.379 | -1.07 | -1.4 | -0.238 | 0.512 | 0.367 | 0.174 | -1.21 | -2.06 | -0.639 | -1.3 | -0.508 | -0.573 | -1.7 | -1.26 | 0.294 | -2.37 | -1.2 | -1.84
13 | N#Cc1c(O)c2c(-c3ccc(-c4ccccc4O)cc3)csc2[nH]c1=O | 0.863 | 0.86 | 0.943 | 0.945 | 0.833 | 0.633 | 0.796 | 0.772 | 0.981 | 1.02 | 1.18 | 1.15 | 1.05 | 0.92 | 1.3 | 1.11 | 0.588 | 1.11 | 1.03 | 1.21
14 | COc1ccc(Cl)cc1NC(=O)Nc1cc(C)nc2ccccc12 | 0.424 | 0.313 | 0.288 | 0.254 | 0.899 | 0.312 | 0.344 | 0.583 | 0.646 | 0.102 | 0.301 | 0.123 | 0.596 | -0.453 | 0.538 | 0.208 | 0.15 | 0.278 | 0.641 | 0.945
15 | C=CC(=O)Nc1cccc(Nc2nc(Nc3ccc(OCCOC)cc3)ncc2F)c1 | 0.188 | 0.343 | 0.615 | 0.623 | 0.493 | 0.497 | 0.589 | 0.424 | 0.253 | -0.205 | 0.482 | 0.518 | -0.261 | 0.628 | -0.871 | -0.0953 | 0.53 | -0.822 | 0.0733 | -1.54
16 | COC(=O)c1ccc2c(C(=Nc3ccc(N(C)C(=O)CN4CCN(C)CC4)cc3)c3ccccc3)c(O)[nH]c2c1 [Nintedanib (BIBF 1120)] | 0.7 | 0.517 | 0.454 | 0.554 | 0.456 | 0.508 | 0.542 | 0.399 | 0.729 | 0.748 | 0.422 | 0.852 | 0.638 | 0.922 | -0.255 | 0.717 | 0.415 | -0.792 | 0.482 | -0.00993
17 | CN1CCN(c2ccc3nc(-c4c(N)c5c(F)cccc5[nH]c4=O)[nH]c3c2)CC1 [Dovitinib (TKI-258) Dilactic Acid] | 0.433 | 0.442 | 0.343 | 0.115 | -0.0977 | 0.528 | 0.591 | 0.649 | -0.225 | -0.448 | -0.371 | 0.785 | -0.222 | 0.245 | -1.08 | -0.242 | 0.59 | -1.04 | 0.128 | -1.22
18 | CN(C[C@@H]1COCCO1)S(=O)(=O)Nc1ccc2ccc3ncc(-c4cnn(C)c4)cc3c(=O)c2c1 | 0.915 | 0.812 | 0.734 | 0.907 | 0.64 | 0.632 | 0.8 | 0.668 | 0.871 | 0.631 | 0.829 | 1.02 | 0.724 | 1.03 | -0.67 | 0.123 | 0.718 | -1.1 | 0.766 | -1.22
19 | c1cncc(CN2CCC(n3ncc4c(N5CCOCC5)nc(-c5ccc6[nH]ccc6c5)nc43)CC2)c1 | -0.323 | 0.0215 | 0.423 | 0.198 | -0.173 | 0.659 | 0.0254 | 0.192 | 0.285 | -0.319 | 0.0351 | 0.23 | -0.297 | -0.184 | -1.17 | 0.286 | 0.507 | -0.691 | -0.167 | -1.02
20 | CNC(=O)c1c(F)cccc1Nc1nc(Nc2cc3c(cc2OC)CCN3C(=O)CN(C)C)nc2[nH]ccc12 | 0.969 | 0.848 | 0.622 | 0.756 | 0.725 | 0.674 | 0.718 | 0.762 | 0.681 | 0.275 | 0.314 | 0.844 | 1.11 | 0.202 | 0.816 | 0.371 | 0.554 | 0.557 | -0.557 | 0.74
21 | Cc1cc(CS(=O)(=O)c2ccccc2)cc(OCc2ccc(CN3CCC[C@@H]3CO)cc2)c1 | 0.357 | 0.585 | 0.791 | 0.694 | 0.3 | 0.445 | 0.495 | 0.422 | 0.607 | 0.707 | 0.348 | 0.621 | 0.721 | 0.252 | 0.678 | 0.706 | 0.469 | 0.191 | 0.449 | 0.551
22 | CCCNC(=O)Nc1ccc(Oc2ncnc3cc(OC)c(OC)cc23)cc1Cl | 1.16 | 0.596 | 0.893 | 0.714 | 0.251 | 0.596 | 0.525 | 0.519 | 0.873 | 0.823 | 0.986 | 0.793 | 1.08 | 1.07 | 0.859 | 0.653 | 0.611 | 0.687 | 0.873 | 1.01
23 | CNC(=O)c1ccc(C)c(-n2c(C)cc(OCc3ccc(F)cc3F)c(Br)c2=O)c1 | 0.76 | 0.656 | 0.704 | 1.07 | 0.832 | 0.711 | 0.86 | 0.696 | 0.811 | 1.05 | 0.929 | 1.19 | 0.898 | 0.771 | 0.833 | 1.1 | 0.76 | 0.868 | 1.41 | 0.751
24 | CSc1cccc(Nc2ncc3cc(-c4c(Cl)cccc4Cl)c(=O)n(C)c3n2)c1 | 0.966 | 0.678 | 1.02 | 1.8 | 0.847 | 0.618 | 0.649 | 0.504 | 0.376 | 0.464 | 0.351 | 0.576 | 1.01 | 0.739 | -0.79 | 0.344 | 0.604 | -0.33 | 1.22 | -0.874
25 | N#CCNC(=O)c1ccc(-c2ccnc(Nc3ccc(N4CCOCC4)cc3)n2)cc1 | 0.825 | 0.617 | -0.139 | 0.633 | -0.357 | 0.557 | 0.508 | 0.562 | -0.343 | 0.196 | 0.376 | 0.663 | -0.229 | 0.711 | 0.174 | 0.16 | 0.584 | 0.584 | 0.918 | 1.17
